According to a compilation of properties of binary mixtures (doi:10.1021/acs.jced.1c00349):
The densities may have been worked out from excess volumes.

Assay: xn = mol fraction of the nth substance listed
Settings: 100 kPa

CC(=O)[O-].CC[n+]1ccn(C)c1 + O
Settings | mass density [kg/m3]
298.15 K, x1 = 0.0499 | 1041
298.15 K, x1 = 0.1515 | 1089
298.15 K, x1 = 0.1944 | 1096
298.15 K, x1 = 0.2487 | 1103
298.15 K, x1 = 0.2966 | 1104
298.15 K, x1 = 0.3896 | 1104
298.15 K, x1 = 0.4844 | 1103
298.15 K, x1 = 0.5796 | 1102
298.15 K, x1 = 0.6809 | 1101
298.15 K, x1 = 0.7657 | 1100
298.15 K, x1 = 0.8622 | 1099
298.15 K, x1 = 0.946 | 1098
303.15 K, x1 = 0.1055 | 1071
303.15 K, x1 = 0.1944 | 1092
303.15 K, x1 = 0.2487 | 1099
303.15 K, x1 = 0.2966 | 1101
303.15 K, x1 = 0.3896 | 1101
303.15 K, x1 = 0.5796 | 1099
303.15 K, x1 = 0.7657 | 1097
303.15 K, x1 = 0.946 | 1095
308.15 K, x1 = 0.0499 | 1036
308.15 K, x1 = 0.1055 | 1067
308.15 K, x1 = 0.1515 | 1082
308.15 K, x1 = 0.2966 | 1098
308.15 K, x1 = 0.3896 | 1098
308.15 K, x1 = 0.4844 | 1097
308.15 K, x1 = 0.5796 | 1096
308.15 K, x1 = 0.6809 | 1095
308.15 K, x1 = 0.7657 | 1094
308.15 K, x1 = 0.946 | 1092
313.15 K, x1 = 0.0499 | 1033
313.15 K, x1 = 0.1055 | 1064
313.15 K, x1 = 0.1515 | 1078
313.15 K, x1 = 0.2966 | 1095
313.15 K, x1 = 0.3896 | 1095
313.15 K, x1 = 0.4844 | 1094
313.15 K, x1 = 0.6809 | 1092
313.15 K, x1 = 0.7657 | 1091
318.15 K, x1 = 0.0499 | 1031
318.15 K, x1 = 0.1055 | 1061
318.15 K, x1 = 0.1515 | 1075
318.15 K, x1 = 0.1944 | 1082
318.15 K, x1 = 0.2487 | 1090
318.15 K, x1 = 0.2966 | 1092
318.15 K, x1 = 0.3896 | 1092
318.15 K, x1 = 0.4844 | 1091
318.15 K, x1 = 0.7657 | 1088
318.15 K, x1 = 0.8622 | 1087
318.15 K, x1 = 0.946 | 1086
323.15 K, x1 = 0.2487 | 1086
323.15 K, x1 = 0.2966 | 1089
323.15 K, x1 = 0.3896 | 1089
323.15 K, x1 = 0.4844 | 1088
323.15 K, x1 = 0.5796 | 1087
323.15 K, x1 = 0.6809 | 1086
323.15 K, x1 = 0.7657 | 1085
328.15 K, x1 = 0.0499 | 1024
328.15 K, x1 = 0.1515 | 1068
328.15 K, x1 = 0.1944 | 1075
328.15 K, x1 = 0.2966 | 1086
328.15 K, x1 = 0.3896 | 1086
328.15 K, x1 = 0.4844 | 1085
328.15 K, x1 = 0.5796 | 1084
328.15 K, x1 = 0.6809 | 1083
328.15 K, x1 = 0.8622 | 1081
328.15 K, x1 = 0.946 | 1080
333.15 K, x1 = 0.0499 | 1019
333.15 K, x1 = 0.1055 | 1051
333.15 K, x1 = 0.1515 | 1065
333.15 K, x1 = 0.1944 | 1072
333.15 K, x1 = 0.2487 | 1080
333.15 K, x1 = 0.2966 | 1082
333.15 K, x1 = 0.3896 | 1083
333.15 K, x1 = 0.4844 | 1082
333.15 K, x1 = 0.6809 | 1080
333.15 K, x1 = 0.7657 | 1079
333.15 K, x1 = 0.946 | 1077
338.15 K, x1 = 0.0499 | 1015
338.15 K, x1 = 0.1055 | 1047
338.15 K, x1 = 0.1515 | 1061
338.15 K, x1 = 0.1944 | 1069
338.15 K, x1 = 0.2487 | 1077
338.15 K, x1 = 0.3896 | 1079
338.15 K, x1 = 0.4844 | 1079
338.15 K, x1 = 0.5796 | 1078
338.15 K, x1 = 0.7657 | 1076
338.15 K, x1 = 0.946 | 1074
343.15 K, x1 = 0.0499 | 1008
343.15 K, x1 = 0.1055 | 1044
343.15 K, x1 = 0.1944 | 1065
343.15 K, x1 = 0.2487 | 1074
343.15 K, x1 = 0.2966 | 1076
343.15 K, x1 = 0.3896 | 1076
343.15 K, x1 = 0.4844 | 1076
343.15 K, x1 = 0.5796 | 1075
343.15 K, x1 = 0.7657 | 1073
348.15 K, x1 = 0.0499 | 1010
348.15 K, x1 = 0.1055 | 1041
348.15 K, x1 = 0.1515 | 1054
348.15 K, x1 = 0.1944 | 1061
348.15 K, x1 = 0.2487 | 1070
348.15 K, x1 = 0.2966 | 1073
348.15 K, x1 = 0.3896 | 1073
348.15 K, x1 = 0.6809 | 1071
348.15 K, x1 = 0.7657 | 1070
348.15 K, x1 = 0.8622 | 1069
348.15 K, x1 = 0.946 | 1068
